Data from PubChem BioAssay AID504332 (National Center for Advancing Translational Sciences (NCATS), 2011).
Several values for one entry are separate records, joined by “and”; a condition that tells them apart may be missing. Identical values can stand only once. Screen size: about 350,000 compounds; about 31,000 (8.9%) were called active. The inconclusive results got no clear call from the source; some entries with a clear call stand among them for comparison. Calls come from the whole dose curve; as a rule, active = well fitted inhibition curve with a large enough effect; inconclusive = small, poorly fitted or top-dose-only effect; inactive = no such curve, though single readings can be large or run the other way. Where the call is inconclusive, the potency comes from a doubtful curve fit.

The molecules below were run against Histone-lysine N-methyltransferase EHMT2 (Homo sapiens) (UniProt Q96KQ7) (assay: qHTS Assay for Inhibitors of Histone Lysine Methyltransferase G9a). Conditions: G9a H3K9 monomethylation, AlphaScreen, 2 h; activity, negative = inhibition: at 59 µM (top of the series) unless noted.
Chain of UniProt Q96KQ7 (Q96KQ7 whole entry, looked up): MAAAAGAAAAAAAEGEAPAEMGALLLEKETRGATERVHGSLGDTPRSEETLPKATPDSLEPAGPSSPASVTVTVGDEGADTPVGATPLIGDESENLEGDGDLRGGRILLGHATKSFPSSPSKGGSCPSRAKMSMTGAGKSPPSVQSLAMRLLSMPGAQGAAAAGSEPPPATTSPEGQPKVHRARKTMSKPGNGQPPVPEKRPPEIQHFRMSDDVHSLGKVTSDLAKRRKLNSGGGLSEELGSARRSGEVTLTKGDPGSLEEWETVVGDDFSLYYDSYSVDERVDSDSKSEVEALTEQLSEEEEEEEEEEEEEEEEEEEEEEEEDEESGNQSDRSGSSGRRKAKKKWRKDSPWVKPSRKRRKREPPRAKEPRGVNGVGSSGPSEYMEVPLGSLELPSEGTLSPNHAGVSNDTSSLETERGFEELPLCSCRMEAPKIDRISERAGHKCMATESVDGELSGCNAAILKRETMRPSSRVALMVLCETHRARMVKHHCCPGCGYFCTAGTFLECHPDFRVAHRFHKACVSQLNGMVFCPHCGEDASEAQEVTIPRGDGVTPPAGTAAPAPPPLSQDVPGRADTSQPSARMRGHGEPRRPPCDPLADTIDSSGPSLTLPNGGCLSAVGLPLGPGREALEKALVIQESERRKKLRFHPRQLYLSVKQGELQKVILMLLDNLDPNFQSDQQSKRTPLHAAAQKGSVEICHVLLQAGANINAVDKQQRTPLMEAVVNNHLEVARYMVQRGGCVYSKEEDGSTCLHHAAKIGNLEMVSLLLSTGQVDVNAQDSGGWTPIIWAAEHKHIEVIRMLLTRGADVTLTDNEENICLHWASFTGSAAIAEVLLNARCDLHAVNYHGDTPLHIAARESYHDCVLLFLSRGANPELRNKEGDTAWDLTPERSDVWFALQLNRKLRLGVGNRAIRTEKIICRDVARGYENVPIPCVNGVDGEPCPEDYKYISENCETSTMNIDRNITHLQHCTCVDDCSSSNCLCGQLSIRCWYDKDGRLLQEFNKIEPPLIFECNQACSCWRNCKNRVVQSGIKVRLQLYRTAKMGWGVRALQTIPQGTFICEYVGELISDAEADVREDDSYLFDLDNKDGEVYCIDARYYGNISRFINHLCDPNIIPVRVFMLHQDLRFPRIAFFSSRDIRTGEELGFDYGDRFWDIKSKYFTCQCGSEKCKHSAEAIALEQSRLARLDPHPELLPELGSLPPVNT
Outline: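 Using a bead-based AlphaScreen, monomethylated H3K9 product from 2 h room-temperature reactions (G9a 20 nM, peptide 500 nM, SAM 20 uM) was detected with 0.5 ug/mL rabbit anti-H3K9me1 antibody.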
% is set by controls: 0 for no effect and ±100 for the full control effect; potency is the fitted concentration of half-maximal effect; tags give direction and shape of the fitted curve.
Note: nearly all actives have a fitted effect of over 75% in size.

| SMILES | Potency | activity, negative = inhibition |
| --- | --- | --- |
| CCOc1ccc(N2C(=O)CC(Sc3nc(CC(C)C)ccc3C#N)C2=O)cc1 (centres undefined) | inconclusive: 70.8 µM [inhibitor, partial curve, poor fit] | – |
| CCOc1ccc(C(=S)N2CCOCC2)cc1OC | inconclusive: 22.4 µM [inhibitor, single point] | – |
| CN1C(=O)C(CC(=O)Nc2ccc(F)cc2)N(CCCc2ccccc2)C1=S (centres undefined) | inconclusive: 89.1 µM [inhibitor, single point] | – |
| C#CCOCCOCCOCCNc1nc(N2CCN(C(=O)CCCCCCCCCCNC(=O)[C@H]([C@@H](C)CC)n3cc(CCCCN=C(N)N)nn3)CC2)nc(N2CCN(C(=O)CCCCCCCCCCNC(=O)[C@H](CCCCN)n3cc(C[C@@H](C)CC)nn3)CC2)n1 | – | inactive: 16.2% [at 2.33 µM] |
| CCOc1ccc(OCCC(=O)OCC(=O)Nc2ccc3c(c2)OCCO3)cc1 | inconclusive: 11.2 µM [inhibitor, partial curve] | – |
| O=C(c1ccccc1SCc1ccccc1)N1CCCCCC1 | inactive | – |
| Cc1ccc(-n2c(C)cc(/C=N/NC(=O)c3ccc(CN4CCOCC4)cc3)c2C)cc1 | – | inconclusive: -73.2% [inhibitor] |
| CC(=O)Nc1ccc(OCCOc2ccc(/C=C3/C(=N)N4C=CSC4=NC3=O)cc2)cc1 | inconclusive: 7.94 µM [inhibitor, partial curve, poor fit] | – |
| O=S(=O)(c1ccccc1)c1nc(NC2CC2)sc1Cl | inactive | – |
| C=CCn1c(-c2sc(-c3ccccc3)nc2C)n[nH]c1=S | active: 3.16 µM | – |
| COc1cccc(OCC(O)CO)c1 (centres undefined) | – | inactive: 3.47% [at 12.7 µM] |
| COc1ccc(OC)c(-n2c(-c3cnccn3)n[nH]c2=S)c1 | active: 10 µM | – |
| Cc1cc(C)nc(SCCc2ccncc2)n1 | active: 3.98 µM | – |
| COc1ccc(CC2=C(O)c3ccccc3C(=O)C2=O)cc1 | inconclusive: 79.4 µM [inhibitor, single point] | – |
| COc1cc(SC)ccc1C(=O)Nc1ccc(C)cc1C | inconclusive: 3.16 µM [inhibitor, single point] | – |
| Nc1c(C(=O)N2CCCC2)sc2nc3c(cc12)CCCCCC3 | inconclusive: 89.1 µM [inhibitor, single point] | – |
| CCCNC(=O)N1[C@H](c2ccc(C)s2)[C@@H](C)C(=O)[C@@H](C)[C@@H]1c1ccc(C)s1 | inconclusive: 31.6 µM [inhibitor, partial curve, poor fit] | – |
| CCC[N+](CC#Cc1ccccc1)(CCC)CC(=O)c1ccc(Cl)cc1 | inconclusive: 8.91 µM [inhibitor, full curve, poor fit] | – |
| CC(C)=C[C@@H]1C[C@H](C)[C@H]2CC[C@H](C)c3c(O)c(O)c(C)c1c32 | – | inactive: 6.3% [at 0.501 µM] |
| COc1cccc(CNc2ccc(F)c(Cl)c2)c1OC | inconclusive: 89.1 µM [inhibitor, single point] | – |
| Cc1ccc(Nc2c(N)c(=O)oc3ccccc23)cc1 | inconclusive: 39.8 µM [inhibitor, single point] | – |
| Cc1cc(F)ccc1S(=O)(=O)Nc1ccc2c(c1)CCCN2C(=O)c1cccs1 | inconclusive: 1.41 µM [inhibitor, single point] | – |
| O=C(CNc1cccc(S(=O)(=O)N2CCOCC2)c1)Nc1ccccc1F | inactive | – |

| SMILES | Potency | activity, negative = inhibition |
| --- | --- | --- |
| CC(C)CC(COCc1cccc(Cl)c1)N1CCN(C(=O)c2ccc(C(F)(F)F)cc2)CCC1=O (centres undefined) | inconclusive: 50.1 µM [inhibitor, partial curve, poor fit] | – |
| Clc1ccc(C2=NCCN2)cc1 | inactive | – |
| Cc1ccc(N2CCN(C(=O)c3cc(-c4ccc(F)cc4)[nH]c3C)CC2C)cc1 (centres undefined) | inconclusive: 79.4 µM [inhibitor, single point] | – |
| O=C(C1=NN[C@@H]2C(=O)N(c3cccc(F)c3)C(=O)[C@H]12)c1ccc2ccccc2n1 | inconclusive: 28.2 µM [inhibitor, single point] | – |
| CCC(=O)/C=C1/Sc2ccc(OC)cc2N1CC | inactive | – |
| O=C(CSc1nc2ncccc2[nH]1)NCc1ccco1 | inconclusive: 79.4 µM [inhibitor, partial curve, poor fit] | – |
| Cc1cccc(NC(=O)CCS(=O)(=O)c2ccc(Br)cc2)c1 | inactive | – |
| O=C(N/N=C\C=C\c1ccc([N+](=O)[O-])o1)c1cccs1 | inconclusive: 6.31 µM [inhibitor, full curve, poor fit] | – |
| Cc1ccc(NC(=O)CSc2nc(-c3cccs3)nc3cc(=O)[nH]n23)cc1 | inactive | – |
| CC(=O)n1c(C=Nc2ccccc2)c(O)c2ccccc21 | inconclusive: 50.1 µM [inhibitor, partial curve, poor fit] | – |
| Cc1ccccc1OCc1n[nH]c(=S)n1-c1ccccc1 | active: 10 µM | – |
| CSC1=NSC2=NC(=O)/C(=C\c3ccc(OC(=O)c4ccco4)cc3)C(=N)N12 | inconclusive: 39.8 µM [inhibitor, partial curve] | – |
| CCCC(=O)Nc1cc(C)c(NC(=O)c2ccccn2)cn1 | active: 7.94 µM | – |
| CC(C)c1nc2sc(C(=O)O)c(N)c2c2c1CCCC2 | inconclusive: 12.6 µM [inhibitor, partial curve, poor fit] | – |
| CC(=C\c1ccco1)/C=C1/SC(=S)N(CC(=O)O)C1=O | active: 39.8 µM | – |
| CCOC(=O)C1=C(C)NC(C)=C(C(=O)OCC)C1c1cc2ccc(C)cc2[nH]c1=O | active: 50.1 µM | – |
| COc1ccc(C(O)Cn2ccsc2=NC(C)=O)cc1 (centres undefined) | active: 50.1 µM | – |
| CCOc1ccc(C2NC(=O)C(C#N)=C(S)N2c2ccc(OC)cc2)cc1OC (centres undefined) | inconclusive: 20 µM [inhibitor, single point] | – |
| O=C(COC(=O)CCN1C(=O)/C(=C\C=C\c2ccccc2)SC1=S)Nc1ccc(Br)cc1 | – | inconclusive: -57.6% [inhibitor] |
| CCOc1ccc(C(=O)c2cn(Cc3ccc(Cl)cc3)c3cc(OC)c(OC)cc3c2=O)cc1 | inactive | – |
| Cc1cc(N2CCN(c3ccccc3)CC2)nc(NCc2ccccc2)n1 | inconclusive: 50.1 µM [inhibitor, partial curve] | – |
| O=C(NCCOCc1ccc(Cl)cc1)c1ncn[nH]1 | inactive | – |
| Cc1ccc(CSc2nc3c(c(=O)[nH]c(=O)n3C)n2CCC(C)C)cc1 | inactive | – |

| SMILES | Potency | activity, negative = inhibition |
| --- | --- | --- |
| CC1CCC(NC(=O)c2cc(S(=O)(=O)N3CCCCC3)ccc2N2CCOCC2)CC1 (centres undefined) | inconclusive: 6.31 µM [inhibitor, single point] | – |
| COc1ccc(Cc2nnc(SCC(=O)N3CCCC(C)C3)o2)cc1 (centres undefined) | inconclusive: 70.8 µM [inhibitor, partial curve] | – |
| COc1ccc(CNC(=O)CN(c2ccc(OC)c(Cl)c2)S(=O)(=O)c2ccc(C)cc2)cc1 | inactive | – |
| CNNC(=S)Nc1cccc(C(F)(F)F)c1 | inactive | – |
| COc1cccc(CN2CCN(Cc3cccc(Oc4ccccc4)c3)CC2)c1OC | active: 3.98 µM | – |
| Cn1cc(-c2nc3cncnc3n(Cc3ccc(F)cc3)c2=O)c2ccccc21 | – | inactive: 16% [at 0.501 µM] |
| Cn1c(=O)[nH]c(=O)c2c1nc(N1CCCCC1)n2CCCSc1nc2ccccc2s1 | inactive | – |
| CCN(CC)CCCNC(=O)c1cc(-c2ccc(Cl)cc2)on1 | inconclusive: 89.1 µM [inhibitor, partial curve, poor fit] | – |
| Cn1ccnc1C(=O)c1cc(=O)c2ccccc2o1 | inconclusive: 89.1 µM [inhibitor, single point] | – |
| OCCCc1nc2n(n1)C(c1ccccc1Cl)C=C(c1cccs1)N2 (centres undefined) | – | inconclusive: -118% [inhibitor] |
| Cc1ccc(-c2nc3nc4ccccc4nc3n2Cc2ccco2)cc1 | inconclusive: 2.51 µM [inhibitor, partial curve, poor fit] | – |
| Cn1cnc2cc(NCc3cccs3)ccc21 | inconclusive: 28.2 µM [inhibitor, partial curve, poor fit] | – |
| COc1cc(OC)c(OC)cc1/C=C1\CCC(C2CCCC2)C1=O (centres undefined) | inconclusive: 12.6 µM [inhibitor, partial curve, poor fit] | – |
| Cc1ccc(-n2c(C)c(C)c3c(NCCN(C)C)ncnc32)cc1 | inconclusive: 89.1 µM [inhibitor, single point] | – |
| CCc1cccc(N2C(=O)N(CC(=O)NCc3cccc(OC)c3OC)c3ccccc3S2(=O)=O)c1 | inactive | – |
| CC(=O)N(Cc1ccc(F)cc1)C1=C(NCCc2ccccc2)C(=O)c2ccccc2C1=O | active: 28.2 µM | – |
| Cc1n[nH]c(=S)n1-c1ccc(Cl)cc1 | inconclusive: 50.1 µM [inhibitor, partial curve, poor fit] | – |
| CCCN1C(=O)C(Cc2nc3ccccc3c(=O)n2-c2ccccc2)c2cc(C)ccc21 (centres undefined) | inconclusive: 89.1 µM [inhibitor, single point] and inconclusive: 794 nM [inhibitor, full curve, poor fit] | – |
| N=c1c2c3c(sc2ncn1N)CCCC3 | inactive | – |
| COC(=O)CCC(=O)Nc1ccc(NC(=O)CCC(=O)OC)cc1 | inconclusive: 28.2 µM [inhibitor, partial curve, poor fit] | – |
| Cc1ccc(C)c(CN2C(=O)c3ccccc3S(=O)(=O)c3ccc(C(=O)N4CCN(c5ccccn5)CC4)cc32)c1 | inconclusive: 28.2 µM [inhibitor, partial curve, poor fit] | – |
| COc1ccc(C(=O)NCCc2sc(-c3ccc(Cl)cc3)nc2C)c(OC)c1 | inactive | – |
| CCCCc1c(C(=O)O)cc(OC)cc1C(=O)O | inconclusive: 7.94 µM [inhibitor, full curve, poor fit] | – |
